The other results are listed elsewhere or left out.
system: T1, Caupolican (Caup) homeodomain DNA-binding domain; experiment: PBM E-score (8-mer, recovered from the published 9-mer minima) (E-score (dimensionless, -0.5 to 0.5)); Drosophila protein; higher = stronger relative binding preference, active = 0.31 or more
T1 sequence: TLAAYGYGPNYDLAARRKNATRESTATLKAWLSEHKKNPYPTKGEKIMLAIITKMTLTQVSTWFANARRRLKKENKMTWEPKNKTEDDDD
Method: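 Protein binding microarray (PBM): in vitro transcribed/translated Caupolican (Caup) homeodomain DNA-binding domain (residues 214-303) applied at 100 nM to a universal 8-mer PBM array (Agilent AMADID 015681). The 8-mer enrichment score (E-score, range -0.5 to 0.5) was computed, and each 9-mer score is the minimum E-score of its two constituent 8-mers. The E-score is the same for a 9-mer and its reverse complement; 0.31 is the stated binding threshold.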

Sequence	PBM E-score
CTTTACAA	inactive: 0.137
AGATCCCA	inactive: -0.0747
AGACGCTC	inactive: -0.135
CTATCACC	inactive: -0.0824
CTTGTCTA	inactive: 0.281
AACGAACG	inactive: -0.0492
AAGGCTCC	inactive: -0.229
CCGACCCC	inactive: -0.288
TATGTCGA	active: 0.323
CTCGTTAC	inactive: 0.147
CTCTGCGA	inactive: -0.00912
AAATACGT	inactive: 0.0315
GGAGTCAA	inactive: -0.113
AGATTGTC	inactive: 0.112
GTTAACGA	inactive: 0.142
CAGCTGGA	inactive: -0.0345
ACTGGACG	inactive: -0.091
GCACTAAA	inactive: -0.0651
GGCGAATA	inactive: -0.0493
ACCAGAGA	inactive: 0.0483
AGAACTTC	inactive: -0.0946
AGTATTAT	inactive: 0.209
AACTATGG	inactive: 0.052

Sequence	PBM E-score
GCTAGGCC	inactive: -0.238
AACTAGGA	≥ 0.133
CCCACCCA	inactive: -0.0835
GAAGATAC	inactive: -0.0179
TAATGTCA	inactive: 0.258
CTATTTGA	inactive: 0.0537
AGGACAGG	inactive: -0.0166
CCTGACGC	inactive: -0.219
AAAGGTTG	inactive: -0.00255
CAAAAATG	inactive: 0.126
CAGGCCAA	inactive: -0.133
ATCTCAAC	inactive: 0.133
ACAGGGTG	inactive: 0.0134
CCCTATTA	inactive: 0.029
AGAGCGCG	inactive: -0.221
AATGACCC	inactive: 0.00407
GAATCAGC	inactive: -0.05
ATATTGGG	inactive: 0.0383
CCAAAGCG	inactive: -0.188
CATGTCAA	active: 0.422
AGTTAACT	inactive: 0.102
TATCATCA	inactive: 0.14
CCCCTATA	inactive: -0.168

Sequence	PBM E-score
AATACGCG	inactive: 0.0251
AATGTCGG	inactive: 0.119
CATCGAAA	inactive: -0.047
ACTCGATA	inactive: 0.124
ACAGAGCC	inactive: -0.0639
CCGTGTCG	inactive: 0.233
ATCACGGA	inactive: 0.0485
GGCGTTAA	inactive: -0.0388
ACAGCGGT	inactive: 0.0217
GTCAACTA	inactive: 0.107
CACGTTAG	inactive: 0.0188
CTACGTCA	inactive: -0.0249
ACGAGTCT	inactive: 0.0486
CTGGCAGA	inactive: -0.105
CACCAATC	inactive: -0.0309
CGGGATAG	inactive: -0.065
AGGGCTTG	inactive: -0.0579
CAAGCTAC	inactive: 0.0871
CTACGGAG	inactive: -0.111
GCCAGACC	inactive: -0.268
ATGAAGGG	inactive: -0.101
TGAATAAA	inactive: 0.122
GACAGTAA	inactive: 0.0594

Sequence	PBM E-score
CGTTGGGA	inactive: -0.0582
ATCGTTTA	inactive: 0.13
AGCTGGAG	inactive: -0.161
ATGCGCCC	inactive: -0.113
ACAACGAA	inactive: 0.187
ACAATTCC	inactive: 0.106
CGACCACA	inactive: 0.0304
AGCAGCAG	inactive: -0.0168
GACGCGCC	inactive: -0.192
ACTCGCGA	≥ -0.00136
GCCCAGGC	inactive: -0.306
ACTGCAAT	inactive: 0.0371
ACCACTGG	inactive: 0.0546
CGCCGAAG	inactive: -0.188
CCCCCTGA	inactive: -0.229
ACGAGCAA	inactive: 0.112
CCTTATCC	inactive: -0.195
AACATAAT	active: ≥ 0.327
ATTATGGC	inactive: 0.00576
GTGGTATA	≥ 0.178
CAAAATGA	inactive: 0.0481
ATCTGTTA	inactive: 0.179
CGATCCCA	inactive: -0.12

Sequence	PBM E-score
AAGAAACT	inactive: 0.0222
AGGGGGCA	≥ -0.238
ACCATGAG	inactive: -0.118
CTATCGTA	inactive: 0.187
AGATCCTC	inactive: -0.0474
CAATTTTC	inactive: 0.0183
ACACCACG	inactive: 0.085
CAATGAAC	inactive: 0.0723
AGAGAGCC	inactive: -0.211
TAACCTGA	inactive: 0.065
AGCATCTG	inactive: 0.00631
ATGTTTTA	active: 0.369
GTTGCGGA	inactive: -0.0563
CAGTAACA	inactive: 0.23
CCAAGCCC	inactive: -0.123
ACGGACGA	≥ 0.0284
TTGATCAA	inactive: 0.115
CCTTACAG	inactive: -0.0132
CCGCAGTC	inactive: -0.104
AGCTCTCC	inactive: -0.149

From the supplement of paper PMC3724861
